From the supplement of paper PMC7826260 come the findings set out here.

What all share (assay): uncleaved DNA left, log2 of reads against the no-enzyme library (log2 ratio); higher = less cleavage (more negative = more Rep cleavage of the k-mer); sequences stand for … in CTCGTCCG…ACCGGAGA
Assay [1] has as its system T1, Rep nickase domain of Muscovy duck circovirus.
T1 sequence (Rep 1-111, printed without the tag): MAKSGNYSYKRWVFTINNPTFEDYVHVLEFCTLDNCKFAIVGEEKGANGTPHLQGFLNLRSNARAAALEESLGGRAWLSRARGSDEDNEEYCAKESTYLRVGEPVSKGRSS
Here is the method:
(§1)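 A pool of 90-nt single-stranded DNAs with seven random bases just before the constant AC of the nick site (name = the seven bases) was cut by 3 µM recombinant His6-SUMO-tagged Rep nickase domain (300 nM DNA, 50 mM HEPES pH 8.0, 50 mM NaCl, 1 mM MnCl2, 1 h, 37 °C, three replicates). Uncut DNA was amplified and sequenced.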

Assay [2] concerns T2, Rep nickase domain of banana bunchy top virus.
T2 sequence (Rep 1-94, printed without the tag): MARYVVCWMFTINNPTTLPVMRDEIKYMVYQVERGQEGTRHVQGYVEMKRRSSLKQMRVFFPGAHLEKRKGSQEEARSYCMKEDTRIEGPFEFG
Here is the method: as §1
The subject of assay [3] is T3, Rep nickase domain of cabbage leaf curl virus.
T3 sequence (Rep 1-116, printed without the tag): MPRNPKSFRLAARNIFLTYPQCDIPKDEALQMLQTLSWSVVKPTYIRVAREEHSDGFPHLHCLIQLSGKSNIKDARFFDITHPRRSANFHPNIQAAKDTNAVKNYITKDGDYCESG
The protocol: as §1
In assay [4] the test system is T4, Rep nickase domain of chickpea chlorotic dwarf virus.
T4 sequence (Rep 1-124, printed without the tag): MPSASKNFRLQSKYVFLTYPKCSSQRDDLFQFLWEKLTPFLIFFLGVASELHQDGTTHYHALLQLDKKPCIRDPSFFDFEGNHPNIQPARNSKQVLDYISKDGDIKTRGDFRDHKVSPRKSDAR
The protocol: as §1
For assay [5], the system named is T5, Rep nickase domain of faba bean necrotic yellows virus.
T5 sequence (Rep 1-98, printed without the tag): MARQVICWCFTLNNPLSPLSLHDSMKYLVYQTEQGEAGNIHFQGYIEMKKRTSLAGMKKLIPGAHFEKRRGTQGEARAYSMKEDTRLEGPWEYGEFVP
The protocol: as §1
In assay [6] the test system is T6, Rep nickase domain of maize striate mosaic virus.
T6 sequence (Rep 1-117, printed without the tag): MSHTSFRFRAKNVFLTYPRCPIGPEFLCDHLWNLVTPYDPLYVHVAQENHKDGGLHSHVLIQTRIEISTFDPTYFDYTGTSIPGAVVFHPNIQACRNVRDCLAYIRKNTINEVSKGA
The protocol:
as §1

Assay [7] concerns T7, Rep nickase domain of porcine circovirus 2.
T7 sequence (Rep 2-116, printed without the tag): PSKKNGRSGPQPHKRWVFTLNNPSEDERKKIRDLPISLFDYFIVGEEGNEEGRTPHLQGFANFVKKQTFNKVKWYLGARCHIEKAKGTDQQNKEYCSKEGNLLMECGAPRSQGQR
Here is the method: as §1
In assay [8] the test system is T8, Rep nickase domain of tomato yellow leaf curl virus.
T8 sequence (Rep 1-136, printed without the tag): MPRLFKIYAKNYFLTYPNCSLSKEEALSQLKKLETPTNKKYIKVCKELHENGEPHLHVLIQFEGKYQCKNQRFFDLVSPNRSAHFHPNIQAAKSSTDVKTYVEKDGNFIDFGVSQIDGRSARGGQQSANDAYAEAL
The protocol: as §1
The subject of assay [9] is T9, Rep nickase domain of wheat dwarf virus.
T9 sequence (Rep 1-137, printed without the tag): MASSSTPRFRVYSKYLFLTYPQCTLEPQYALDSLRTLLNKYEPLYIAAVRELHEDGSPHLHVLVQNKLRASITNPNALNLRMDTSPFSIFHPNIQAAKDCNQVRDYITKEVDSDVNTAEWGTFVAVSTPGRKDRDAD
Here is the method:
as §1

This is one part of the list. Each Rep nickase domain was tested in vitro on the same pool of single strands at 3 µM enzyme and 37 °C for 1 h; the strands have 90 letters, of which the middle is given. Values are log2 of uncut reads against the no-enzyme pool; more negative means more cut, near 0 not cut, and no call is made. Because reads are shares of a total, they shift together, so uncut sequences can rise above 0 when many others are cut.

As for TTCTACG, the “uncleaved DNA left (log2)” value in [1] was 0.0177; in [2] it was -0.143; in [3], -0.934; in assay [4] it was -1.16; in assay [5], 0.0638; in assay [6] it was -1.27. The “uncleaved DNA left (log2)” value in [7] is 0.0238; in assay [8], 0.0231; in assay [9], -0.215.
As for TGTAGGC, the “uncleaved DNA left (log2)” value in assay [1] turned out to be 0.132; in assay [2], 0.0489; in assay [3], 0.34; in assay [4] it was 0.615; in assay [5] it was 0.02; in assay [6], 0.183. Further, the “uncleaved DNA left (log2)” value came out at 0.176 in assay [7], 0.0857 in [8] and 0.11 in [9].
For the sequence AGATTCC, the “uncleaved DNA left (log2)” value in assay [1] is -0.196; in assay [2] it was -0.0702; in assay [3] it was 0.139; in assay [4], 0.465; in assay [5] it was -0.0747; in [6], 0.206. Also, the “uncleaved DNA left (log2)” value is -0.714 in assay [7], -0.107 in [8] and -0.122 in [9].
Turning to TCTGGCG, the “uncleaved DNA left (log2)” value in [1] is 0.203; in assay [2], 0.112; in assay [3], -0.564; in assay [4] it was 1.01; in [5], 0.293; in [6], -0.0464. Moreover, the entries for the “uncleaved DNA left (log2)” value in [7], in [8] and in assay [9] were 0.267, 0.152 and -0.0104, respectively.
With TACGTCT, the “uncleaved DNA left (log2)” value in assay [1] was 0.037; in [2] it was 0.0213; in assay [3] it was -1.82; in assay [4] it was -3.09; in assay [5], 0.0866; in [6] it was -0.787. Further, the “uncleaved DNA left (log2)” value was -0.663 in assay [7], 0.0601 in [8] and -0.27 in [9].
For CAATACG, the “uncleaved DNA left (log2)” value is 0.0272 in assay [1]; -0.00443 in assay [2]; -0.849 in assay [3]; 0.134 in assay [4]; -0.0539 in assay [5]; -1.08 in assay [6]. The “uncleaved DNA left (log2)” value in [7] was 0.12; in assay [8], -0.052; in assay [9], -0.0907.
Turning to CGAAGTG, the “uncleaved DNA left (log2)” value in assay [1] was -0.153; in assay [2], -0.00896; in [3], -0.353; in assay [4], 0.104; in assay [5], -0.0491; in [6] it was -0.0705. Moreover, the “uncleaved DNA left (log2)” value in [7] is 0.00161; in assay [8], -0.104; in assay [9], -0.132.
Regarding CGATCGC, the “uncleaved DNA left (log2)” value in [1] was 0.217; in [2] it was 0.052; in [3], -0.188; in assay [4], -0.201; in assay [5], 0.0278; in assay [6], -0.569. Further, the “uncleaved DNA left (log2)” value in [7] turned out to be 0.093; in assay [8], 0.0745; in [9] it was 0.173.
On to CTGAACC, for which the “uncleaved DNA left (log2)” value in assay [1] is 0.124; in [2], -0.0472; in assay [3], 0.0946; in assay [4], 0.456; in [5], 0.0424; in [6], 0.41. Besides, the “uncleaved DNA left (log2)” value in assay [7] turned out to be 0.00304; in assay [8], 0.0408; in [9], 0.103.
For TCTGGAC, the “uncleaved DNA left (log2)” value in assay [1] is 0.0178; in [2], 0.0896; in assay [3], 0.334; in assay [4] it was 1.05; in assay [5], -0.00475; in assay [6], 1.23. The entries for the “uncleaved DNA left (log2)” value in [7], in assay [8] and in assay [9] were 0.0603, 0.0245 and 0.0649, respectively.
As for CCATTAT, the “uncleaved DNA left (log2)” value in assay [1] was -0.473; in assay [2] it was 0.114; in assay [3], -0.103; in [4], -0.949; in [5], -0.0308; in assay [6] it was -0.986. Also, the “uncleaved DNA left (log2)” value in [7] is -0.86; in [8], -0.00494; in assay [9], -0.1.
For the sequence TAGATAT, the “uncleaved DNA left (log2)” value in assay [1] was 0.0613; in assay [2], -0.477; in [3], -0.608; in [4], -1.49; in assay [5], -0.137; in assay [6], 0.635. Further, the “uncleaved DNA left (log2)” value is -3.43 in [7], 0.0683 in assay [8] and -0.098 in [9].
For AGGAGGG, the “uncleaved DNA left (log2)” value is 0.0871 in assay [1]; -0.0582 in assay [2]; -0.0923 in assay [3]; 0.0792 in assay [4]; 0.057 in assay [5]; -0.319 in [6]. The “uncleaved DNA left (log2)” value in assay [7] was 0.183; in assay [8], 0.0711; in assay [9], -0.0393.
As for ATATCTC, the “uncleaved DNA left (log2)” value in assay [1] was -0.144; in [2], 0.0502; in assay [3], -0.0822; in assay [4], -0.321; in assay [5], 0.119; in [6], -0.228. The “uncleaved DNA left (log2)” value is -0.00732 in [7], 0.0853 in assay [8] and 0.117 in assay [9].
With GCCTGAC, the “uncleaved DNA left (log2)” value is -0.0222 in assay [1]; -0.0902 in [2]; 0.0171 in [3]; 0.531 in [4]; -0.155 in assay [5]; 0.432 in [6]. The entries for the “uncleaved DNA left (log2)” value in [7], in assay [8] and in [9] were 0.0462, -0.12 and -0.0222, respectively.
As for CTAAGGT, the “uncleaved DNA left (log2)” value in assay [1] was 0.00345; in [2] it was -0.0474; in [3], -1.33; in assay [4], -1.76; in assay [5], -0.0559; in assay [6], 1.07. The entries for the “uncleaved DNA left (log2)” value in [7], in assay [8] and in [9] were 0.0404, -0.172 and -0.169, respectively.
